No constants are given. Whether binding was seen depends on the method and setting. Some binding calls cover weakened binding; strength is not graded here.
T1: ARF4 (Arabidopsis thaliana) (UniProt Q9ZTX9)
T1 sequence: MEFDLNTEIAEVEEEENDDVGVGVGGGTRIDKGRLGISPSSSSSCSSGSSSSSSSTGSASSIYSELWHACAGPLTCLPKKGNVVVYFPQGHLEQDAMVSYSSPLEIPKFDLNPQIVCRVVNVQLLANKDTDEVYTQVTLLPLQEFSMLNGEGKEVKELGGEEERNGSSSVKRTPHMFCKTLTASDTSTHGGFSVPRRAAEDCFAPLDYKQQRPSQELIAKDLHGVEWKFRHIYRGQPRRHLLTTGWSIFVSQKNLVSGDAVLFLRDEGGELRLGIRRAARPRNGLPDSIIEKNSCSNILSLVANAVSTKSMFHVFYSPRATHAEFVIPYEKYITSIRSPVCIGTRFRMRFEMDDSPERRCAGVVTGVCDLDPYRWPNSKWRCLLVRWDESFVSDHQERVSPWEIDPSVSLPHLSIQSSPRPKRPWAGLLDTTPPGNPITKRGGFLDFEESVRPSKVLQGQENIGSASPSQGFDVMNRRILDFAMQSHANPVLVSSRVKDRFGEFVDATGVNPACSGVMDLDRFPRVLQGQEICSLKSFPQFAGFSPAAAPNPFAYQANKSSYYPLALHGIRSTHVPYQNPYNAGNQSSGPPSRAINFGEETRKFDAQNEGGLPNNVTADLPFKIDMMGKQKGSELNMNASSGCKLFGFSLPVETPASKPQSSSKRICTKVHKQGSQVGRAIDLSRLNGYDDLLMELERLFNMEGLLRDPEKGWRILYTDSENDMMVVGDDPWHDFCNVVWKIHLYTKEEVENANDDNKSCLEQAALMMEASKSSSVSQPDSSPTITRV

T2: ARF6 (Arabidopsis thaliana) (UniProt Q9ZTX8)
T2 sequence: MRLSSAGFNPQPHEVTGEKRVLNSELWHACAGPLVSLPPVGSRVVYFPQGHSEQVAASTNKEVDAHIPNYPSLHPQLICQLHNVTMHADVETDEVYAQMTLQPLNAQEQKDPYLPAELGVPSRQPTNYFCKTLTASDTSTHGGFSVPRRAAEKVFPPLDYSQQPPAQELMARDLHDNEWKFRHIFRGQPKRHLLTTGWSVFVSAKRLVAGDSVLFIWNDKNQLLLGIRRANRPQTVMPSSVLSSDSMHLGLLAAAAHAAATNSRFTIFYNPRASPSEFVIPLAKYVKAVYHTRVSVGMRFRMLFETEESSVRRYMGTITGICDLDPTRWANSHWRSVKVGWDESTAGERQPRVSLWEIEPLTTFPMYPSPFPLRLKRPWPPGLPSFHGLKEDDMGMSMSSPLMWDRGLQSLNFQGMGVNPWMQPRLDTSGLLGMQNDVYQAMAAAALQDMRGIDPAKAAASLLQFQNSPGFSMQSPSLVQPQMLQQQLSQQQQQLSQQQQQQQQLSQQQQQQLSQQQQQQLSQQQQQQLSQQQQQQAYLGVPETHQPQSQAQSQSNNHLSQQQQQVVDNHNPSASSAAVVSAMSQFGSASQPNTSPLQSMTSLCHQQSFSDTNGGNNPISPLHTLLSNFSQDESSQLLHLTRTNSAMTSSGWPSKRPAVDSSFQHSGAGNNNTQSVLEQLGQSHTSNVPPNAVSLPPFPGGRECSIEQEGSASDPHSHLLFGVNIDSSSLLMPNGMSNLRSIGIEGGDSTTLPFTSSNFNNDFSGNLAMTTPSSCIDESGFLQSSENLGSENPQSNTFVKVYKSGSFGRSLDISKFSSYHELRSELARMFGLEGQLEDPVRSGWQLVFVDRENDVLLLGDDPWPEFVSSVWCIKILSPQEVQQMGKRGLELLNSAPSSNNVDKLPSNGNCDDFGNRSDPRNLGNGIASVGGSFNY

T3: ARF8 (Arabidopsis thaliana) (UniProt Q9FGV1)
T3 sequence: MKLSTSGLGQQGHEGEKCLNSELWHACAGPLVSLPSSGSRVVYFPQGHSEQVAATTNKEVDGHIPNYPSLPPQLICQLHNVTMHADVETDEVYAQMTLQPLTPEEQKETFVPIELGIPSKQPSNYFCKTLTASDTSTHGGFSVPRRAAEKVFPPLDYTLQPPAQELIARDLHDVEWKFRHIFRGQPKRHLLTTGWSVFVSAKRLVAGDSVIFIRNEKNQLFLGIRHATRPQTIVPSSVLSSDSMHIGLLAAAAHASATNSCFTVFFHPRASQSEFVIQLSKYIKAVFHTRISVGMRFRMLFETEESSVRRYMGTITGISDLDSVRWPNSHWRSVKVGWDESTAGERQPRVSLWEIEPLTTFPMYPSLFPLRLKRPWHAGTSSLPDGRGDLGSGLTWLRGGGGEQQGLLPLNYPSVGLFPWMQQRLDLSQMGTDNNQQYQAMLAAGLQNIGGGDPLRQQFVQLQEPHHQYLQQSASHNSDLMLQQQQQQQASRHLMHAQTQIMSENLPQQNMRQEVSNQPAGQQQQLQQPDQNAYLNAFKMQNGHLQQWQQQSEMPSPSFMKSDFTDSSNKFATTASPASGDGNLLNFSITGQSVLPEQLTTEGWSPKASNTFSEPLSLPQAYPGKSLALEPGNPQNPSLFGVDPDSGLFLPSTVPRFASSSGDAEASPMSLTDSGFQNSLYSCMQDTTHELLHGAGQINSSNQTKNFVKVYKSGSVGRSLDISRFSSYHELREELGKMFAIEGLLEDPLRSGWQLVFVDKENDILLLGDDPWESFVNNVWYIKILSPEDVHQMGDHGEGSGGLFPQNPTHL


Experiments:
Experiment in all cases: two-hybrid; S. cerevisiae AH109 co-transformed with pGBKT7-ARF (bait) and pGADT7-Aux/IAA (prey); growth on SD/-Ade-His-Leu-Trp against SD/-Leu/-Trp; at least 10 independent colonies; serial dilutions for strength
[1] = biological target: T1, ARF4 (Arabidopsis thaliana)
[2] = biological target: T2, ARF6 (Arabidopsis thaliana)
[3] = biological target: T3, ARF8 (Arabidopsis thaliana)

Row | Binder | binding [1] | binding [2] | binding [3]
1 | Aux/IAA33 (protein, UniProt Q9FKM7 1-171) MNSFEPQSQDSLQRRFHQDNSTTQQPRDTTTPFIPKPASKNHNNSNSSSGAAGRSFQGFGLNVEDDLVSSVVPPVTVVLEGRSICQRISLDKHGSYQSLASALRQMFVDGADSTDDLDLSNAIPGHLIAYEDMENDLLLAGDLTWKDFVRVAKRIRILPVKGNTRQVKRNE | binds | binds | binds
2 | Aux/IAA34 (protein, UniProt Q9C5X0 1-185) MYCSDPPHPLHLVASDKQQKDHKLILSWKKPTMDSDPLGVFPNSPKYHPYYSQTTEFGGVIDLGLSLRTIQHEIYHSSGQRYCSNEGYRRKWGYVKVTMDGLVVGRKVCVLDHGSYSTLAHQLEDMFGMQSVSGLRLFQMESEFCLVYRDEEGLWRNAGDVPWNEFIESVERLRITRRNDAVLPF | binds | binds | binds

Now from value to binder:

Row | binding [1] | binding [2] | binding [3] | Binder
3 | binds | binds | binds | Aux/IAA4 (protein, UniProt P33077 1-186) MEKVDVYDELVNLKATELRLGLPGTEETVSCGKSNKRVLPEATEKEIESTGKTETASPPKAQIVGWPPVRSYRKNNVQTKKSESEGQGNYVKVSMDGAPYLRKIDLTMYKQYPELMKSLENMFKFSVGEYFEREGYKGSDFVPTYEDKDGDWMLVGDVPWEMFVSSCKRLRIMKGSEVKGLGCGGL
4 | binds | binds | binds | Aux/IAA5 (protein, UniProt P33078 1-163) MANESNNLGLEITELRLGLPGDIVVSGESISGKKRASPEVEIDLKCEPAKKSQVVGWPPVCSYRRKNSLERTKSSYVKVSVDGAAFLRKIDLEMYKCYQDLASALQILFGCYINFDDTLKESECVPIYEDKDGDWMLAGDVPWEMFLGSCKRLRIMKRSCNRG
